{"source": "PubChem BioAssay AID743279", "about": "(National Center for Advancing Translational Sciences (NCATS), 2014)", "note": "The whole screen tested about 360,000 compounds, of which about 17,000 (4.7%) were called active. Inconclusive results, whose numbers are uncertain, are shown with a selection of clear calls. Cut-off read from the data, not from the text of the source: active = activity change below about -50%; inconclusive = mostly about -30% to -49%; inactive = weaker than that.", "data": [{"assay": "qHTS for Inhibitors of Inflammasome Signaling: IL-1-beta AlphaLISA Primary Screen", "conditions": "THP-1 LPS/ATP IL-1B secretion, 16 h; at 57.5 µM, hits give low values", "summary_of_the_method": "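THP-1 cells pretreated 1 hr with compounds (up to 57.5 uM final), then stimulated with LPS (250 ng/mL final) plus ATP (1.25 mM final); secreted IL-1B measured by AlphaLISA after 16 hr, decreased signal indicating inhibition.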", "values": [{"molecule": "CCOc1ccc(C2/C(=C(\\O)c3ccc4c(c3)OCCO4)C(=O)C(=O)N2CCN2CCOCC2)cc1OC", "note": "(stereo not given); note: % is set by controls: 0 for no effect and ±100 for the full control effect", "activity change": "inactive: 8.01%"}, {"molecule": "O=C(Nc1cc(Cl)cc(Cl)c1)C1CCC(=O)N1Cc1ccccc1Cl", "note": "(stereo not given)", "activity change": "inconclusive: -33.3%"}, {"molecule": "O=C(Nc1cc(C(F)(F)F)ccc1Cl)c1ccncc1", "activity change": "inactive: -18.7%"}, {"molecule": "COc1ccc(CN(C)C(=O)c2cccc(Oc3ccccc3)c2)c(OC)c1OC", "activity change": "inconclusive: -42.7%"}, {"molecule": "C=CCOc1ccc(-c2nc3c(c(=O)[nH]c(=O)n3CCCC)n2C)cc1Br", "activity change": "inactive: 64.1%"}, {"molecule": "COc1ccc(-c2nnc3sc(CCN4C(=O)c5ccccc5C4=O)nn23)cc1", "activity change": "inactive: 2.31%"}, {"molecule": "CC12CC(NC(=O)N1c1cccc(C(=O)N3CCN(c4ccccc4)CC3)c1)c1ccccc1O2", "note": "(stereo not given)", "activity change": "inconclusive: -42.1%"}, {"molecule": "COC(=O)c1c(NC(=O)c2ccc(OC(C)C)cc2)sc2c1CC(C)(C)NC2(C)C", "activity change": "inactive: -18.2%"}, {"molecule": "COc1ccc(C(CC(=O)c2ccc(O)cc2)S(=O)(=O)c2ccc(C)cc2)cc1", "note": "(stereo not given)", "activity change": "active: -50.8%"}, {"molecule": "CCOc1ccc2nc(Cl)c(/C=C/C(=O)c3ccco3)cc2c1", "activity change": "inconclusive: -36.5%"}, {"molecule": "Cc1cccc(NC(=O)CCN2CCN(C/C=C/c3ccccc3)CC2)c1", "activity change": "active: -76.6%"}, {"molecule": "CC(=O)[C@]1(O)Cc2c(O)c3c(c(O)c2[C@@H](O[C@H]2C[C@H](N)[C@H](O)[C@H](C)O2)C1)C(=O)c1ccccc1C3=O", "activity change": "active: -106%"}, {"molecule": "COc1ccc(-c2cc(=Nc3ccc(C)cc3)c3ccccc3o2)cc1", "activity change": "inconclusive: -39.8%"}, {"molecule": "CN(C)CCCN(C(=O)c1ccc(S(=O)(=O)N2CCCCCC2)cc1)c1nc2c(F)cc(F)cc2s1", "activity change": "active: -85.8%"}, {"molecule": "COc1ccc(-c2nnc(SCCOc3cccc(C)c3)n2N)cc1", "activity change": "inconclusive: -39.7%"}, {"molecule": "Cc1cc(NC(=O)COc2ccc(F)c(Cl)c2)no1", "activity change": "inconclusive: -44.4%"}, {"molecule": "CC(C)c1ccc(NS(=O)(=O)c2cccc3cccnc23)cc1", "activity change": "inconclusive: -38.3%"}, {"molecule": "N=C1S/C(=C\\c2ccc(O)cc2)C(=O)N1c1ccc(F)cc1", "activity change": "inactive: 60%"}, {"molecule": "Cc1cccc(-n2c(O)c(C=NCc3ccccn3)c3ccccc3c2=O)c1", "activity change": "inconclusive: -32.6%"}, {"molecule": "COc1cc(OC)c(C(=O)OCC(=O)c2ccc3c(c2)NC(=O)CO3)cc1OC", "activity change": "inconclusive: -33.2%"}, {"molecule": "Cc1onc(-c2ccccc2)c1C(=O)NCCCc1ccccc1", "activity change": "inactive: 7.19%"}, {"molecule": "COc1ccc(NS(=O)(=O)c2cccc(C(=O)NCCCN3CCCC3=O)c2)cc1", "activity change": "inactive: 31.8%"}, {"molecule": "C[n+]1c2n(c3ccccc31)N=C(c1ccccc1)CS2", "activity change": "inconclusive: -34.2%"}, {"molecule": "Cc1ccc(N(C)C(=O)c2ccc3c(Cl)c4c(nc3c2)CCC4)cc1C", "activity change": "active: -65.5%"}, {"molecule": "Cc1c(N=C2N=C(NC(=O)NC(C)(C)C)c3ccccc32)c(=O)n(-c2ccccc2)n1C", "activity change": "inconclusive: -30.1%"}, {"molecule": "O=C(NN=c1c(=O)c2ccccc2c1=O)c1ccccc1", "activity change": "inconclusive: -40.5%"}, {"molecule": "O=C(CSc1nnc(Cn2nnc3ccccc32)o1)N(Cc1ccc(Cl)cc1)c1ccccc1", "activity change": "active: -51.8%"}, {"molecule": "Nc1nonc1-c1nc2ccccc2n1Cc1ccccc1", "activity change": "inconclusive: -43.2%"}, {"molecule": "Cc1cc(OCc2cc(C(=O)NC(C)c3c(C)nn(C)c3C)no2)cc(C)c1Cl", "note": "(stereo not given)", "activity change": "inactive: -28.5%"}, {"molecule": "O=C(NCCc1ccccc1)c1cccc2c1C(=O)N(C1CCCCC1)C2", "activity change": "inconclusive: -49.5%"}, {"molecule": "O=C(c1cc2ccccc2oc1=O)N(Cc1cccs1)Cc1ccccc1Cl", "activity change": "inconclusive: -45.5%"}, {"molecule": "Cc1ccc(C)c(S(=O)(=O)Nc2ccc(O)cc2)c1", "activity change": "inactive: -7.02%"}, {"molecule": "O=C(Cc1coc2cc(O)ccc12)N1CCN(S(=O)(=O)c2ccc(Br)cc2)CC1", "activity change": "inconclusive: -31.8%"}, {"molecule": "O=C(N/N=C/c1ccc([N+](=O)[O-])s1)c1ccccc1", "activity change": "inconclusive: -40.6%"}, {"molecule": "CCCCCC(=O)N1C[C@H](n2cc(-c3ccc(F)cc3)nn2)[C@@H](O)C[C@@H]1c1ccc(C)cc1", "activity change": "inconclusive: -37.2%"}, {"molecule": "O=C(C#Cc1ccccc1)c1ccccc1", "activity change": "active: -108%"}, {"molecule": "Fc1ccc(COc2ccccc2C(=S)N2CCCC2)cc1", "activity change": "inconclusive: -43.3%"}, {"molecule": "O=S(=O)(c1ccccc1F)N1CCN(CCc2ccccc2)CC1", "activity change": "inactive: -16.8%"}, {"molecule": "CC1CCN(S(=O)(=O)c2nnc(NC(=O)c3ccccc3Br)s2)CC1", "activity change": "inconclusive: -33.5%"}, {"molecule": "Cc1ccc(NC(=O)COC(=O)Cc2c[nH]c3ccccc23)cc1", "activity change": "inactive: 6.17%"}, {"molecule": "CCOC(=O)C1=C(CCl)NC(=O)NC1c1ccc2c(c1)OCO2", "note": "(stereo not given)", "activity change": "active: -99.9%"}, {"molecule": "CN1CCSc2ccc(C(=O)Nc3cc(F)ccc3F)cc21", "activity change": "inconclusive: -34.9%"}, {"molecule": "O=C(Nc1ccc(-c2nc3ccccc3o2)cc1)c1cc(-n2cnnc2)ccc1Cl", "activity change": "inconclusive: -43.8%"}, {"molecule": "COc1ccc(NC(=S)NC2CCN(Cc3ccccc3)CC2)cc1OC", "activity change": "inactive: -9.95%"}, {"molecule": "COc1cc(/C=N/Nc2nc3ccccc3[nH]2)cc(OC)c1O", "activity change": "active: -99%"}, {"molecule": "OC(c1cccc(OCc2ccccc2)c1)c1nnc(-c2ccccc2)o1", "note": "(stereo not given)", "activity change": "inconclusive: -43.1%"}, {"molecule": "C[C@H]1CN([C@@H](C)CO)C(=O)CCCn2nncc2CO[C@H]1CN(C)C(=O)c1ccc(N2CCN(C)CC2)cc1", "activity change": "inactive: 16.8%"}, {"molecule": "O=C(CSc1ccccc1)NCC(c1ccco1)N1CCCCC1", "note": "(stereo not given)", "activity change": "inactive: 0%"}, {"molecule": "CC(=O)Nc1cccc(-c2ccnc3c2CC(C)(C(=O)NCC2CC2)O3)c1", "note": "(stereo not given)", "activity change": "inactive: 68.9%"}, {"molecule": "CC1CN(CCS(=O)(=O)c2cc(Cl)ccc2Cl)CC(C)O1", "note": "(stereo not given)", "activity change": "active: -103%"}, {"molecule": "Cn1cccc1CC(=O)N/N=C/c1cccc2ccccc12", "activity change": "inconclusive: -32.6%"}, {"molecule": "COc1cccc(NC(=S)N(CCCN2CCN(C)CC2)Cc2ccco2)c1", "activity change": "inconclusive: -30.5%"}, {"molecule": "CCc1nc2c(OCc3ccc(Cl)cc3)cccn2c1N(C)C(=O)c1ccc(C)cc1", "activity change": "inconclusive: -43.6%"}, {"molecule": "Cc1nn(-c2ccccc2)c(N2CCCC2)c1/C=N/NC(=O)c1cc(-c2cccnc2)nc2ccccc12", "activity change": "inconclusive: -43.3%"}, {"molecule": "COc1ccccc1-c1cnc2c(c1)C(=O)N([C@@H](C)CO)C[C@@H](C)[C@H](CN(C)C(=O)c1cccnc1)O2", "activity change": "inactive: 18.9%"}]}]}
